From publication PMC4613828 (PLoS Pathogens, 2015)

Procedure: The crystal structure of CVA16 in complex with the uncoating inhibitor GPP3 was determined by crystallography (Materials and Methods, Fig 2 and Table 1). […] Diffraction data were collected from 15 crystals at room temperature in crystallization plates at the Diamond Light Source[9]. Data were scaled together, merged and the structure solved at 2.75 Å resolution by molecular replacement using the structure of the mature CVA16 virus. […] The surface area accessible to solvent, calculated by Areaimol[11], is 12.3 Å^2 for GPP3 in the VP1 pocket whereas for the sphingosine it is 11.8 Å^2. […] As expected, GPP3 binds with its pyridine ring close to the entrance of the pocket, with the carbonyl oxygen of the imidazole moiety hydrogen-bonding to the backbone nitrogen of residue Ile113, which is also the case for sphingosine, and with the phenoxy ring sandwiched between two hydrophobic residues (Phe135 and Tyr155) (Fig 2). This binding mode was also observed for EV71 in complex with the same compound[8], except that EV71 has a phenylalanine at position 155. The RMSD between EV71 crystal structure and CVA16 structure is 0.5Å for all aligned residues. Their sequence identity is ~80% in the capsid proteins.

CCON=Cc1ccc(OCCC(C)CCN2CCN(c3ccncc3)C2=O)cc1 (stereo not shown) [GPP3]
solubility in water: rather insoluble in water
